The supplement of paper PMC8728848
Some of the results follow.

Legend:
Test in all cases: glycan array binding signal (z-score within array); higher = stronger binding
Details in all cases: glycan notation: IUPAC condensed, linker removed
[1] = molecular target: Gal(b1-3)GlcNAc(b1-2)Man(a1-3)[Gal(b1-3)GlcNAc(b1-2)Man(a1-6)]Man(b1-4)GlcNAc(b1-4)[Fuc(a1-6)]GlcNAc
In short: (§1)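 The binding signal is a Z-score computed within each array and averaged over linkers. Arrays of the same protein sequence at different concentrations or buffers were also averaged together. Data originate from 3228 arrays in the Consortium for Functional Glycomics database, kept only where the protein sequence was available.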

[2] = molecular target: Gal(b1-3)GlcNAc(b1-2)Man(a1-3)[GlcNAc(b1-4)][Gal(b1-3)GlcNAc(b1-2)Man(a1-6)]Man(b1-4)GlcNAc(b1-4)GlcNAc
In short: as §1

[3] = molecular target: Gal(b1-3)GlcNAc(b1-2)[Gal(b1-3)GlcNAc(b1-6)]Man(a1-6)[Gal(b1-3)GlcNAc(b1-2)Man(a1-3)]Man(b1-4)GlcNAc(b1-4)GlcNAc
In short: as §1

[4] = molecular target: Gal(b1-3)GlcNAc(b1-3)Gal(b1-3)GlcNAc
In short: as §1

[5] = molecular target: Gal(b1-3)GlcNAc(b1-3)Gal(b1-4)Glc
In short: as §1

[6] = molecular target: Gal(b1-3)GlcNAc(b1-3)Gal(b1-4)GlcNAc
In short: as §1

[7] = molecular target: Gal(b1-3)GlcNAc(b1-3)Gal(b1-4)GlcNAc(b1-2)Man(a1-3)[Gal(b1-3)GlcNAc(b1-3)Gal(b1-4)GlcNAc(b1-2)Man(a1-6)]Man(b1-4)GlcNAc(b1-4)GlcNAc
In short: as §1

[8] = molecular target: Gal(b1-3)GlcNAc(b1-3)Gal(b1-4)GlcNAc(b1-2)[Gal(b1-3)GlcNAc(b1-3)Gal(b1-4)GlcNAc(b1-6)]Man(a1-6)[Gal(b1-3)GlcNAc(b1-3)Gal(b1-4)GlcNAc(b1-2)Man(a1-3)]Man(b1-4)GlcNAc(b1-4)[Fuc(a1-6)]GlcNAc
In short: as §1

[9] = molecular target: Gal(b1-3)GlcNAc(b1-3)Gal(b1-4)GlcNAc(b1-3)Gal(b1-4)GlcNAc(b1-2)[Gal(b1-3)GlcNAc(b1-3)Gal(b1-4)GlcNAc(b1-3)Gal(b1-4)GlcNAc(b1-6)]Man(a1-6)[Gal(b1-3)GlcNAc(b1-3)Gal(b1-4)GlcNAc(b1-3)Gal(b1-4)GlcNAc(b1-2)Man(a1-3)]Man(b1-4)GlcNAc(b1-4)[Fuc(a1-6)]GlcNAc
In short: as §1

[10] = molecular target: Gal(b1-3)GlcNAc(b1-3)Gal(b1-4)GlcNAc(b1-6)[Gal(b1-3)GlcNAc(b1-3)]Gal(b1-4)Glc
In short: as §1

[11] = molecular target: Gal(b1-3)GlcNAc(b1-3)Gal(b1-4)[Fuc(a1-3)]GlcNAc
In short: as §1

[12] = molecular target: Gal(b1-3)GlcNAc(b1-3)Gal(b1-4)[Fuc(a1-3)]GlcNAc(b1-6)[Gal(b1-3)GlcNAc(b1-3)]Gal(b1-4)Glc
In short: as §1

[13] = molecular target: Gal(b1-3)GlcNAc(b1-3)GalNAc
In short: as §1

[14] = molecular target: Gal(b1-3)GlcNAc(b1-6)Gal(b1-4)GlcNAc
In short: as §1

[15] = molecular target: Gal(b1-3)GlcNAc(b1-6)GalNAc
In short: as §1

[16] = molecular target: Gal(b1-3)GlcNAc(b1-6)[Gal(b1-3)]GalNAc
In short: as §1

Gal(b1-3)GlcNAc6S = molecular target: Gal(b1-3)GlcNAc6S
In short: as §1

[17] = molecular target: Gal(b1-3)[Fuc(a1-4)]GlcNAc
In short: as §1

[18] = molecular target: Gal(b1-3)[Fuc(a1-4)]GlcNAc(b1-2)Man
In short: as §1

[19] = molecular target: Gal(b1-3)[Fuc(a1-4)]GlcNAc(b1-2)Man(a1-3)[Gal(b1-3)[Fuc(a1-4)]GlcNAc(b1-2)Man(a1-6)]Man(b1-4)GlcNAc(b1-4)[Fuc(a1-6)]GlcNAc
In short: as §1

[20] = molecular target: Gal(b1-3)[Fuc(a1-4)]GlcNAc(b1-3)Gal(b1-3)[Fuc(a1-4)]GlcNAc
In short: as §1

[21] = molecular target: Gal(b1-3)[Fuc(a1-4)]GlcNAc(b1-3)Gal(b1-4)[Fuc(a1-3)]GlcNAc
In short: as §1

[22] = molecular target: Gal(b1-3)[Fuc(a1-4)]GlcNAc(b1-6)GalNAc
In short: as §1

[23] = molecular target: Gal(b1-3)[GlcNAc(b1-6)]GalNAc
In short: as §1

[24] = molecular target: Gal(b1-3)[Neu5Ac(a2-6)]GalNAc
In short: as §1

[25] = molecular target: Gal(b1-3)[Neu5Ac(a2-6)]GlcNAc(b1-4)Gal(b1-4)Glc
In short: as §1

[26] = molecular target: Gal(b1-3)[Neu5Ac(b2-6)]GalNAc
In short: as §1

Gal(b1-4)Gal = molecular target: Gal(b1-4)Gal
In short: as §1

[27] = molecular target: Gal(b1-4)GalNAc(a1-3)[Fuc(a1-2)]Gal(b1-4)GlcNAc
In short: as §1

[28] = molecular target: Gal(b1-4)GalNAc(b1-3)[Fuc(a1-2)]Gal(b1-4)GlcNAc
In short: as §1

Gal(b1-4)Glc = molecular target: Gal(b1-4)Glc
In short: as §1

Gal(b1-4)Glc6S = molecular target: Gal(b1-4)Glc6S
In short: as §1

Gal(b1-4)GlcNAc = molecular target: Gal(b1-4)GlcNAc
In short: as §1

[29] = molecular target: Gal(b1-4)GlcNAc(a1-6)Gal(b1-4)GlcNAc
In short: as §1

Gal(b1-4)GlcNAc(b1-2)Man = molecular target: Gal(b1-4)GlcNAc(b1-2)Man
In short: as §1

[30] = molecular target: Gal(b1-4)GlcNAc(b1-2)Man(a1-3)Man(b1-4)GlcNAc(b1-4)GlcNAc
In short: as §1

[31] = molecular target: Gal(b1-4)GlcNAc(b1-2)Man(a1-3)[Gal(b1-4)GlcNAc(b1-2)Man(a1-6)]Man(b1-4)GlcNAc(b1-4)GlcNAc
In short: as §1

[32] = molecular target: Gal(b1-4)GlcNAc(b1-2)Man(a1-3)[Gal(b1-4)GlcNAc(b1-2)Man(a1-6)]Man(b1-4)GlcNAc(b1-4)[Fuc(a1-6)]GlcNAc
In short: as §1

[33] = molecular target: Gal(b1-4)GlcNAc(b1-2)Man(a1-3)[Gal(b1-4)GlcNAc(b1-2)Man(a1-6)][Gal(b1-4)GlcNAc(b1-4)]Man(b1-4)GlcNAc(b1-4)[Fuc(a1-6)]GlcNAc
In short: as §1

[34] = molecular target: Gal(b1-4)GlcNAc(b1-2)Man(a1-3)[Gal(b1-4)GlcNAc(b1-2)Man(a1-6)][GlcNAc(b1-4)]Man(b1-4)GlcNAc(b1-4)[Fuc(a1-6)]GlcNAc
In short: as §1

[35] = molecular target: Gal(b1-4)GlcNAc(b1-2)Man(a1-3)[GlcNAc(b1-2)Man(a1-6)]Man(b1-4)GlcNAc(b1-4)GlcNAc
In short: as §1

[36] = molecular target: Gal(b1-4)GlcNAc(b1-2)Man(a1-3)[GlcNAc(b1-4)][Gal(b1-4)GlcNAc(b1-2)Man(a1-6)]Man(b1-4)GlcNAc(b1-4)GlcNAc
In short: as §1

[37] = molecular target: Gal(b1-4)GlcNAc(b1-2)Man(a1-3)[Man(a1-6)]Man(b1-4)GlcNAc(b1-4)GlcNAc
In short: as §1

[38] = molecular target: Gal(b1-4)GlcNAc(b1-2)Man(a1-6)Man(b1-4)GlcNAc(b1-4)GlcNAc
In short: as §1

[39] = molecular target: Gal(b1-4)GlcNAc(b1-2)Man(a1-6)[GlcNAc(b1-2)Man(a1-3)]Man(b1-4)GlcNAc(b1-4)GlcNAc
In short: as §1

B1: LecRKVI.2 (protein)
chain: RTTTNFAFRGFNGNQSKIRIEGAAMIKPDGLLRLTDRKSNVTGTAFYHKPVRLLNRNSTNVTIRSFSTSFVFVIIPSSSSNKGFGFTFTLSPTPYRLNAGSAQYLGVFNKENNGDPRNHVFAVEFDTVQGSRDDNTDRIGNDIGLNYNSRTSDLQEPVVYYNNDDHNKKEDFQLESGNPIQALLEYDGATQMLNVTVYPARLGFKPTKPLISQHVPKLLEIVQEEMYVGFTASTGKGQSSAHYVMGWSFSSGGERPIADVLILSELPPPPPNKAKKEGLNS
- glycan array binding signal (z-score) [1]: -0.373
- glycan array binding signal (z-score) [2]: 0.217
- glycan array binding signal (z-score) [3]: 0.629
- glycan array binding signal (z-score) [4]: -0.207
- glycan array binding signal (z-score) [5]: -0.387
- glycan array binding signal (z-score) [6]: -0.404
- glycan array binding signal (z-score) [7]: 0.241
- glycan array binding signal (z-score) [8]: 0.833
- glycan array binding signal (z-score) [9]: 0.66
- glycan array binding signal (z-score) [10]: -0.26
- glycan array binding signal (z-score) [11]: -0.351
- glycan array binding signal (z-score) [12]: -0.36
- glycan array binding signal (z-score) [13]: 0.521
- glycan array binding signal (z-score) [14]: -0.399
- glycan array binding signal (z-score) [15]: -0.311
- glycan array binding signal (z-score) [16]: 0.611
- glycan array binding signal (z-score) (Gal(b1-3)GlcNAc6S): 0.039
- glycan array binding signal (z-score) [17]: -0.399
- glycan array binding signal (z-score) [18]: -0.297
- glycan array binding signal (z-score) [19]: 0.278
- glycan array binding signal (z-score) [20]: -0.455
- glycan array binding signal (z-score) [21]: -0.304
- glycan array binding signal (z-score) [22]: 0.164
- glycan array binding signal (z-score) [23]: -0.332
- glycan array binding signal (z-score) [24]: -0.409
- glycan array binding signal (z-score) [25]: -0.28
- glycan array binding signal (z-score) [26]: -0.225
- glycan array binding signal (z-score) (Gal(b1-4)Gal): -0.396
- glycan array binding signal (z-score) [27]: -0.303
- glycan array binding signal (z-score) [28]: -0.29
- glycan array binding signal (z-score) (Gal(b1-4)Glc): -0.37
- glycan array binding signal (z-score) (Gal(b1-4)Glc6S): -0.338
- glycan array binding signal (z-score) (Gal(b1-4)GlcNAc): -0.176
- glycan array binding signal (z-score) [29]: 0.988
- glycan array binding signal (z-score) (Gal(b1-4)GlcNAc(b1-2)Man): -0.407
- glycan array binding signal (z-score) [30]: 0.309
- glycan array binding signal (z-score) [31]: 0.352
- glycan array binding signal (z-score) [32]: -0.34
- glycan array binding signal (z-score) [33]: -0.326
- glycan array binding signal (z-score) [34]: -0.509
- glycan array binding signal (z-score) [35]: -0.444
- glycan array binding signal (z-score) [36]: -0.25
- glycan array binding signal (z-score) [37]: 0.014
- glycan array binding signal (z-score) [38]: 0.432
- glycan array binding signal (z-score) [39]: -0.315
